{"source": "the supplement of paper PMC10126150", "note": "Values marked as one replicate rest on one cluster of the flow cell; about a third of the high ones do not repeat.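 Further: ATP exposure 15 min at 22 °C before imaging.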"}
{"system": "ATP", "assay": "switch fluorescence ratio, 500 uM ATP over buffer (Cy3 cluster intensity, sum of 5 cycles each) (fold (ratio)); higher = stronger signal-on switching upon ATP binding; sequences stand for … in TCGTCGGCAGCGTCAGATGTGTATAAGAGACAGTTTTTTTTTTTTTTTTTTTTTTTTT…TC", "conditions": "aptamer strand: ATP DNA aptamer (quencher-CACCTGGGGGAGTATTGCGGAGGAAGG + anchor), 100 nM annealed; ATP concentration: 500 uM; one replicate", "in_short": "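After annealing to 100 nM quencher-labelled ATP aptamer, Cy3-labelled switching-strand clusters on a modified Illumina MiSeq flow-cell were imaged in selection buffer. A second image followed after 15 min with 500 uM ATP at 22 °C, and five such buffer/ATP cycles were done, each separated by NaOH stripping and re-annealing. The fluorescence ratio, averaged per switch-domain sequence, is summed target-cycle over summed buffer-cycle Cy3 intensity per cluster, with clusters outside 100-1000 RFU excluded.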"}
{"sequence": "TAGAGATAGG", "switch fluorescence ratio": 0.926}
{"sequence": "TAGAGGCACG", "switch fluorescence ratio": 1.02}
{"sequence": "TAGAGGCGG", "switch fluorescence ratio": 0.981}
{"sequence": "TAGAGGCTTT", "switch fluorescence ratio": 1}
{"sequence": "TAGAGGGTA", "switch fluorescence ratio": 0.934}
{"sequence": "TAGAGGGTAG", "switch fluorescence ratio": 1}
{"sequence": "TAGAGTACCC", "switch fluorescence ratio": 1.01}
{"sequence": "TAGATCGGTC", "switch fluorescence ratio": 1}
{"sequence": "TAGATGAAGG", "switch fluorescence ratio": 0.98}
{"sequence": "TAGATGCATA", "switch fluorescence ratio": 1.01}
{"sequence": "TAGATGCGC", "switch fluorescence ratio": 1.03}
{"sequence": "TAGATTACAG", "switch fluorescence ratio": 1.02}
{"sequence": "TAGATTGCTA", "switch fluorescence ratio": 0.967}
{"sequence": "TAGCAAGGCA", "switch fluorescence ratio": 1.07}
{"sequence": "TAGCACTCG", "switch fluorescence ratio": 1.09}
{"sequence": "TAGCAGCGGT", "switch fluorescence ratio": 1.03}
{"sequence": "TAGCAGTACA", "switch fluorescence ratio": 1.53}
{"sequence": "TAGCATGCTT", "switch fluorescence ratio": 1.03}
{"sequence": "TAGCATTACT", "switch fluorescence ratio": 4.7}
{"sequence": "TAGCATTCGA", "switch fluorescence ratio": 1.1}
{"sequence": "TAGCCAACTG", "switch fluorescence ratio": 0.966}
{"sequence": "TAGCCATAAG", "switch fluorescence ratio": 0.957}
{"sequence": "TAGCCCGAGG", "switch fluorescence ratio": 0.997}
{"sequence": "TAGCCCGGA", "switch fluorescence ratio": 1.01}
{"sequence": "TAGCCCTGGA", "switch fluorescence ratio": 1.02}
{"sequence": "TAGCGAATCC", "switch fluorescence ratio": 1.03}
{"sequence": "TAGCGATTAT", "switch fluorescence ratio": 1.06}
{"sequence": "TAGCGGATG", "switch fluorescence ratio": 0.976}
{"sequence": "TAGCGGCGGG", "switch fluorescence ratio": 1}
{"sequence": "TAGCGGGGT", "switch fluorescence ratio": 0.987}
{"sequence": "TAGCGTAGAT", "switch fluorescence ratio": 0.995}
{"sequence": "TAGCGTCCCG", "switch fluorescence ratio": 0.939}
{"sequence": "TAGCTAATAG", "switch fluorescence ratio": 1.28}
{"sequence": "TAGCTACC", "switch fluorescence ratio": 1.07}
{"sequence": "TAGCTCATGT", "switch fluorescence ratio": 0.956}
{"sequence": "TAGCTCATTT", "switch fluorescence ratio": 0.985}
{"sequence": "TAGCTCCTTT", "switch fluorescence ratio": 1.04}
{"sequence": "TAGCTGCCTG", "switch fluorescence ratio": 1.09}
{"sequence": "TAGCTTTGG", "switch fluorescence ratio": 0.978}
{"sequence": "TAGGAGGGAT", "switch fluorescence ratio": 0.975}
{"sequence": "TAGGAGTTCA", "switch fluorescence ratio": 0.994}
{"sequence": "TAGGATCCTT", "switch fluorescence ratio": 1.02}
{"sequence": "TAGGATGAAT", "switch fluorescence ratio": 0.989}
{"sequence": "TAGGATGACA", "switch fluorescence ratio": 0.958}
{"sequence": "TAGGCAGTAA", "switch fluorescence ratio": 1.04}
{"sequence": "TAGGCCTAGG", "switch fluorescence ratio": 0.941}
{"sequence": "TAGGCGATCT", "switch fluorescence ratio": 1}
{"sequence": "TAGGCGGGGC", "switch fluorescence ratio": 1.03}
{"sequence": "TAGGCGGGT", "switch fluorescence ratio": 0.987}
{"sequence": "TAGGCTGGCG", "switch fluorescence ratio": 0.966}
{"sequence": "TAGGGACATA", "switch fluorescence ratio": 1.01}
{"sequence": "TAGGGATT", "switch fluorescence ratio": 1.01}
{"sequence": "TAGGGCGTC", "switch fluorescence ratio": 0.975}
{"sequence": "TAGGGCTTGG", "switch fluorescence ratio": 1}
{"sequence": "TAGGGGAAAC", "switch fluorescence ratio": 0.957}
{"sequence": "TAGGGGATTA", "switch fluorescence ratio": 0.959}
{"sequence": "TAGGGTCAAC", "switch fluorescence ratio": 0.988}
{"sequence": "TAGGGTGCCT", "switch fluorescence ratio": 0.972}
{"sequence": "TAGGTCAACT", "switch fluorescence ratio": 1.01}
{"sequence": "TAGGTGAAT", "switch fluorescence ratio": 1.04}
{"sequence": "TAGGTGAGGT", "switch fluorescence ratio": 0.992}
{"sequence": "TAGGTGCCCT", "switch fluorescence ratio": 1.06}
{"sequence": "TAGGTGCGCA", "switch fluorescence ratio": 1.07}
{"sequence": "TAGGTGGGCG", "switch fluorescence ratio": 1.03}
{"sequence": "TAGGTGTAGA", "switch fluorescence ratio": 0.974}
{"sequence": "TAGGTGTCCC", "switch fluorescence ratio": 1.02}
{"sequence": "TAGGTGTGCT", "switch fluorescence ratio": 1.03}
{"sequence": "TAGGTGTGGA", "switch fluorescence ratio": 0.997}
{"sequence": "TAGGTTATTC", "switch fluorescence ratio": 0.97}
{"sequence": "TAGTAGCTAG", "switch fluorescence ratio": 0.985}
{"sequence": "TAGTAGCTTG", "switch fluorescence ratio": 0.976}
{"sequence": "TAGTATGCAG", "switch fluorescence ratio": 1.04}
{"sequence": "TAGTATGTG", "switch fluorescence ratio": 0.952}
{"sequence": "TAGTATGTGC", "switch fluorescence ratio": 0.924}
{"sequence": "TAGTCCAAA", "switch fluorescence ratio": 0.981}
{"sequence": "TAGTCCAAAC", "switch fluorescence ratio": 0.993}
{"sequence": "TAGTCCATGG", "switch fluorescence ratio": 0.96}
{"sequence": "TAGTCCCAGT", "switch fluorescence ratio": 1.07}
{"sequence": "TAGTCGAGTC", "switch fluorescence ratio": 0.918}
{"sequence": "TAGTCTGTCA", "switch fluorescence ratio": 0.963}
{"sequence": "TAGTGCACTT", "switch fluorescence ratio": 0.98}
{"sequence": "TAGTGGGCGT", "switch fluorescence ratio": 0.999}
{"sequence": "TAGTGGTGAC", "switch fluorescence ratio": 0.967}
{"sequence": "TAGTGTCTC", "switch fluorescence ratio": 1.03}
{"sequence": "TAGTGTTTTA", "switch fluorescence ratio": 0.98}
{"sequence": "TAGTTATGAT", "switch fluorescence ratio": 0.974}
{"sequence": "TAGTTATGTC", "switch fluorescence ratio": 0.905}
{"sequence": "TAGTTCCAGG", "switch fluorescence ratio": 1.27}
{"sequence": "TAGTTCCTTG", "switch fluorescence ratio": 1}
{"sequence": "TAGTTCGAAG", "switch fluorescence ratio": 1.13}
{"sequence": "TAGTTTAGTA", "switch fluorescence ratio": 0.971}
{"sequence": "TAGTTTCAAT", "switch fluorescence ratio": 0.982}
{"sequence": "TAGTTTCAGT", "switch fluorescence ratio": 0.945}
{"sequence": "TAGTTTCCGA", "switch fluorescence ratio": 1.03}
{"sequence": "TAGTTTCTA", "switch fluorescence ratio": 1.02}
{"sequence": "TAGTTTGTT", "switch fluorescence ratio": 0.95}
{"sequence": "TATAAAAGCG", "switch fluorescence ratio": 1.03}
{"sequence": "TATAAATGCA", "switch fluorescence ratio": 0.957}
{"sequence": "TATAACCACA", "switch fluorescence ratio": 1.07}
{"sequence": "TATAAGTGAC", "switch fluorescence ratio": 1.04}
{"sequence": "TATAAGTGCC", "switch fluorescence ratio": 1.03}
